Read-outs that look alike come from different tables or passages of the source. Peptide text beside a SMILES is read from it.
Experiments:
[1] = test system: kiwi Actinidiae deliciosa 'Hayward' plants; conditions: 29 DAI; foliar application
Protocol: 24-hours after the initial treatments, all plants except for the uninfected controls were sprayed with 1×10^8 cfu/mL PSA-V inoculum using a 5 L hand-held pressurized sprayer aimed at the underside of leaves until thoroughly covered. The uninfected control was sprayed with water alone. Potted plants were then transported to Pukehina and placed in an area with overhead misting for 48 hours to mimic environmental conditions for PSA-V infection, with uninfected control plants separated from infected plants. After 48 hours, a subset of plants was then removed from the misting area and allowed to briefly dry before application of Serine Protease 2 (SEQ ID NO: 795). After the final treatments, all plants were moved to their final outdoor trial site, randomized positions in Pukehina. Average daily temperature at the trial site was 20.75° C. with a total rainfall of 277 mm over 34 days. […] Plants were visually monitored throughout the trial period for PSA-V disease assessments, with the same assessor recording the % of leaf area covered in spots at 6 days after inoculation (6 DAI), 16 DAI, 23 DAI and 29 DAI. Additionally, each plant was assessed for treatment phytotoxicity effects at 29 DAI on a scale of 0-10, with 0=no leaf phytotoxicity and 10=very severe leaf phytotoxicity symptoms. […] P-values were calculated for each treatment vs. the untreated control.

[2] = pH 6.9
Protocol: For data in Table 54 below, an amount of 0.1 g of starch (unbranched α-1,4-linked glucose residues) from Solanum tuberosum was suspended in 1.0 mL room temperature 10× Phosphate Buffered Saline (PBS), pH 6.9 and then dissolved into 9 mL boiling water. For Treatments A-D, 0.165 nL of enzyme preparation diluted in 1× PBS, pH 6.9 were added, in triplicate, to a 96-well plate. For Treatments E-G, 9.4 nL of enzyme preparation in 1× PBS, pH 6.9 were added, in triplicate, to a 96-well plate.

[3] = test system: Citrus trees infected with Candidatus Liberibacter asiaticus; conditions: 'Ruby Red' grapefruit, trunk injection
Description: Described herein is a method for promoting tree recovery from the symptoms of Citrus Greening Disease or HLB using a multi-pronged approach to 1) alert the plant to the presence of pathogenic bacteria using trunk injection or foliar application of a Flg22 peptide from Bacillus thuringiensis, 2) clear excess callose and starch polymers from the plant vasculature through injection of callose- and starch-degrading enzymes, and/or the callose synthesis inhibitor 2-DDG, and 3) improve plant health through delivery of the sulfur-containing amino acid L-cysteine.
Treatment trees included 10-year old ‘Ruby Red’ grapefruit (Citrus x paradisi) located at a commercial grove orchard located in central Florida (Okeechobee County) and 8 to 10 year old ‘Valencia’ orange (Citrus sinesis) trees located at two sites, a grove in Eustis, Florida (Lake County) and a grove in central Florida (Okeechobee County). […] Fruit were harvested and assessed according the same metrics of total “Fruit Count” and “Fruit Weight”, “Average Weight per Fruit”, “Average Fruit Diameter” and “% Drop” as described in Example 1, “Acid-corrected ^oBrix (^oBrixc)”, “Citric Acid %”, “% Juice Content” as described as in Example 2, with the exception that one set of grapefruit consisted of 25 total fruit, sampled as 5 fruit each from 5 trees. […]

[4] = test system: Citrus trees infected with Candidatus Liberibacter asiaticus; conditions: 'Ruby Red' grapefruit
Description: For juice quality analysis, one set of oranges consisted of 10 total fruit, each corresponding to a sampling from 5 trees of the same experimental treatment. The set of 10 oranges were weighed (gram; g) and then juiced together. Oranges were imaged as a set of whole fruit and then cut in half so the pedicel and the style were a part of separate halves and the interior half of the fruit resembled wedges in a wheel. After imaging the halved fruit, each half was juiced until no endocarp remained. The juice from all the fruit in the set was strained to remove bulk pulp and then combined and measured for juice volume (mL) and mass (g). Mean juice volume per fruit (mL), mean fruit weight (g), and % juice content (g juice in set/g comprising the whole fruit in set) were calculated and recorded. The bulk juice was strained through a mesh strainer and samples were retained for Brix and acidity analysis (1 mL and 5 mL, respectively).
Acid-corrected ^oBrix (^oBrixc) values of juice were obtained from the juiced (squeezed) fruit following the USDA minimum standards for Brix laboratory analytical methods. A MA871 Refractometer (Milwaukee Instruments) was used for Brix analysis. For Brix analysis, 1 mL of the strained juice from each set was centrifuged at 13,300×g for 30 seconds to pellet pulp. 100 μL of distilled water was used to zero the instrument, and 100 μL each of 12.5% Brix and 25% Brix standards made with sucrose (Acros Organics, Belgium) were used to verify calibration between runs. A 100 μL volume of each sample was read for Brix content and recorded. Temperature was recorded using the output in the Brix analysis meter. (JBT FoodTech Laboratory Manual, “Procedures for Analysis of Citrus Products, Sixth Edition). For determination of citric acid content (% CA), 5 mL of strained juice was diluted 10-fold in distilled water. The diluted sample was titrated to pH 8.10 using a HI 84532 Titratable Acidity Minititrator & pH Meter for Fruit Juice (Hanna Instruments). […] The standard pH curve was set with provided standards at pH 4.01, pH 7.01, and pH 8.20. […] After collecting Brix values and acidity data, the fruit brix to acidity ratio was calculated (Brix:CA). Increased Brix and Brix:CA values are indicative of a higher quality fruit with increased sugar content relative to acid content.
Treatment trees included 10-year old ‘Ruby Red’ grapefruit (Citrus x paradisi) located at a commercial grove orchard located in central Florida (Okeechobee County) and 8 to 10 year old ‘Valencia’ orange (Citrus sinesis) trees located at two sites, a grove in Eustis, Florida (Lake County) and a grove in central Florida (Okeechobee County). […] To assess the effects of citrus recovery treatments on fruit yield and quality, ‘Ruby Red’ grapefruit were harvested 20 months post-treatment, and the ‘Valencia’ oranges (Okeechobee and Lake Counties) were harvested approximately 22 months post-treatment. Fruit were harvested and assessed according the same metrics of total “Fruit Count” and “Fruit Weight”, “Average Weight per Fruit”, “Average Fruit Diameter” and “% Drop” as described in Example 1, “Acid-corrected ^oBrix (^oBrixc)”, “Citric Acid %”, “% Juice Content” as described as in Example 2, with the exception that one set of grapefruit consisted of 25 total fruit, sampled as 5 fruit each from 5 trees. One set of 25 grapefruit were assessed per replicated treatment block, for a total of two sets per treatment.

[5] = test system: corn plants (hybrids DKC 60-88 RIB, DKC 58-08 RIB and DKC 64-35 RIB); conditions: foliar V4-V7, 12 locations
Protocol: Corn plants were grown as described in Example 6.
ACC Deaminase (Composition 3) was formulated at 8 Fl. oz/Ac (584.2 mL/Hectare, Ha) use rate.

[6] = test system: corn plants, hybrid P1197; conditions: in furrow with 10-34-0 base fertilizer, 4 locations
Protocol: Yield impact of combination in furrow treatments was assessed on corn plants, hybrid P1197.
Replicated trials were conducted at 4 locations throughout the US Midwest (KS, MO, IL). […] A base treatment of 10-34-0 fertilizer at the rate of 2.5 gallons per acre was applied along with all treatments, including the control treatment. Herbicides were applied for weed control. Four-row plots, 39 feet (11.9 meters) long were planted at all locations.

[7] = test system: HLB-infected Ruby Red Grapefruit trees; test: Citrus trials of Examples 20-24: fruit yield, fruit size, fruit count and fruit drop, grapefruit; assay type: in vivo, Citrus paradisi
Protocol: All fruit with a diameter greater than or equal to 1.6 inches (40 mm) were hand-picked and collected for each tree. The total “Fruit Weight” (in kilograms) per individual tree was measured and recorded. Trees with total fruit weights less than or greater than 2 standard deviations (2STDEV) from the trial mean were considered to be outliers and removed from the dataset. Fruit size was assessed as the “Average Weight per Fruit” in grams (weight of 20 random fruit per tree, divided by 20) and “Average Fruit Diameter” in millimeters, as described in Example 1. The “Average Fruit Count” per tree was assessed as the total “Fruit Weight” divided by “Average Weight per Fruit”. “Fruit Drop” was assessed as for Example 1. Fruit quality was assessed as for Example 2, with the exception that one set of fruit consisted for 15 total fruit, each corresponding to a sampling of 3 fruit from 5 trees of the same experimental treatment block. Each set of 15 fruit were weighed (gram; g) and then juiced together. Average yield, % fruit drop, fruit size, and juice quality for each of the tested compositions are described in Examples 20-24.

[8] = 37° C.
Protocol: CM-pachyman was carboxymethylated with chloroacetic acid to increase solubility in aqueous solutions.
An amount of 0.125 g of CM-pachyman from Poria cocos was dissolved in 23.5 mL water, at 90° C., and diluted to 25 mL in 0.5 M sodium citrate buffer, pH 4.9.

Compound: CC[C@H](C)[C@H](NC(=O)[C@H](CCC(N)=O)NC(=O)[C@H](CC(C)C)NC(=O)CNC(=O)[C@H](C)NC(=O)[C@H](C)NC(=O)[C@H](CC(=O)O)NC(=O)[C@H](CC(=O)O)NC(=O)[C@H](CCCCN)NC(=O)[C@H](C)NC(=O)[C@H](CO)NC(=O)[C@H](CC(N)=O)NC(=O)[C@@H](NC(=O)[C@H](CCCCN)NC(=O)[C@H](CC(C)C)NC(=O)CNC(=O)[C@H](CO)NC(=O)[C@H](CO)NC(=O)[C@H](CC(C)C)NC(=O)[C@H](CCCNC(=N)N)NC(=O)[C@@H](N)[C@@H](C)O)[C@@H](C)CC)C(=O)N[C@@H](C)C(=O)O [Flg22-PSA] (H-TRLSSGLKINSAKDDAAGLQIA-OH)
- Average Phytotoxicity Score (0-10) [1]: 0.1 (±0.3)

Compound: N[C@@H](CS)C(=O)O [L-Cysteine, L-cysteine]
- A540 10 min post-treatment [2]: 0.207
- amylase activity response on starch [2]: did not show significant amylase activity
- A540 60 min post-treatment (n = 3): 0.373
- glucanase response compared with β-1,3-D-glucanase alone (Treatment A) (pH 4.9): did not show additional glucanase activity

Compound: Bt.4Q7Flg22 (SEQ ID NO: 226) (DRLSSGKRINSASDDAAGLAIA; listed as Bacillus thuringiensis)
- Average Yield (kg per tree) ([3]; harvested 20 months post-treatment, Bt.4Q7Flg22 0.33 mg/tree, endoglucanase 2600 U/tree, mixture 660 U + 660 U + 0.27 mg/tree): 37.2 kg per tree
- Average Yield (kg per tree) Relative to Untreated ([3]; untreated = 34.6): (108%)
- Average Fruit Diameter (mm) ([4]; trunk injection): 85.03 mm
- Average Juice Volume per fruit ([4]; trunk injection): 163.6 mL
- Brix:CA Ratio ([4]; untreated = 8.90): 9.24
- Average Juice Content (%) ([4]; untreated = 59%): 68%
- Average Fruit Diameter Relative to Untreated ([4]; untreated = 82.17): (103%)
- Average Juice Volume per fruit Relative to Untreated ([4]; untreated = 134.9): (121%)

Compound: DRLSSGKRINSASDDAAGLAIA (listed as Bacillus thuringiensis) [Bt.4Q7Flg22, Flg22 flagellin-associated polypeptide from Bacillus thuringiensis strain 4Q7]
- average yield increase over control [5]: +4.37 Bu/Ac
- average yield increase over the control [6]: +1.39 Bu/Ac
- count box of fruit ([7]; trunk injection): 56 count
- increased yield relative to untreated control ([7]; trunk injection (Spring 2019) and foliar application (Fall 2019)): 39.7%
- increased yield relative to the untreated control ([7]; trunk injection alone, Spring 2019 (Table 62)): 14.4%

Compound: β-1,3-D-glucanase (CsPr2) from Citrus sinensis (SEQ ID NO: 770)
- A540 30 min post-treatment (37° C.): 0.394

Compound: β-1,3-D-glucanase (LamA1) from Paenibacillus sp. CCRC17245 (SEQ ID NO: 767)
- A540 30 min post-treatment [8]: 0.402
